The record followed here is the supplement of paper PMC5655136.

These are enrichments in a pooled selection; single values are uncertain.
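Further: shRNA barcodes quantified by deep sequencing of PCR amplicons from cellular DNA, counts expressed as percent of each subpool, ratio averaged over two biological duplicates.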

The first data set relates to NB7. As to the kind of experiment: fold depletion of shRNA, plasmid library share / infected cells without Dox share (9 days) (ratio); higher = more depleted after infection (more toxic, leaky expression from a Tet-inducible vector; NB7 is a neuroblastoma line without caspase-8). As to conditions: shRNA pool: CD95L ORF + CD95L 3'UTR + Venus libraries.
Consider GTTCTACACTCATCTTAGTGC, for which the “fold depletion of shRNA” value was determined as 2.39.

Regarding TGATGATGGAGGGGAAGATGA, the “fold depletion of shRNA” value came out at 2.9.

With TGGACAGCAGTGCCAGCTCTC, the “fold depletion of shRNA” value worked out at 2.87.

Take GTCCGCCCTGAGCAAAGACCC: the “fold depletion of shRNA” value came to 0.524.

For GAGGATTTAAGGGATGGAAAA, the “fold depletion of shRNA” value is 1.18.

TCCTGGTCGAGCTGGACGGCG: the “fold depletion of shRNA” value came to 1.13.

Turning to CCAGTGCAATTGTAGGGGTGT, the “fold depletion of shRNA” value stood at 1.59.

As for GTACTTTGTATATTCCAAAGT, the “fold depletion of shRNA” value was 0.442.

As to AGATGATGAGCTACTGCACTA, the “fold depletion of shRNA” value was 2.61.

For CCACTACCAGCAGAACACCCC, the “fold depletion of shRNA” value was 1.8.

CTTCAAGGACGACGGCAACTA: the “fold depletion of shRNA” value stood at 1.26.

In the case of TGGTCCTGCTGGAGTTCGTGA, the “fold depletion of shRNA” value was found to be 1.3.

Consider TATTAGGAAAATATGGGTTGC, for which the “fold depletion of shRNA” value turned out to be 1.63.

On to TCGAGCTGGACGGCGACGTAA, for which the “fold depletion of shRNA” value was found to be 1.38.

On to CAGCACGACTTCTTCAAGTCC, for which the “fold depletion of shRNA” value was 2.74.

GTGTGTGTGTGTGTGTGTATG: the “fold depletion of shRNA” value came out at 6.73.

Regarding GAGCAAAGACCCCAACGAGAA, the “fold depletion of shRNA” value amounted to 1.59.

For the sequence CTACTGGGCAGATGTGGGCCC, the “fold depletion of shRNA” value is 9.1.

With AGAATGTAGATATTGTGAAGT, the “fold depletion of shRNA” value turned out to be 1.15.

AACTAACAGATAAGCAAGAGA: the “fold depletion of shRNA” value worked out at 1.12.

On to AGGTCTACATGAGGAACTCTA, for which the “fold depletion of shRNA” value was 1.47.

Consider GACGACGGCAACTACAAGACC, for which the “fold depletion of shRNA” value was 0.697.

On to AAGATGATGAGCTACTGCACT, for which the “fold depletion of shRNA” value was 1.96.

As to TATATTCCAAAGTATACTTCC, the “fold depletion of shRNA” value stood at 0.514.

With CGGCGACGGCCCCGTGCTGCT, the “fold depletion of shRNA” value was 1.48.

For the sequence CTGGGCTGTACTTTGTATATT, the “fold depletion of shRNA” value worked out at 0.676.

As for ACTACCGCTGCCACCCCTGAA, the “fold depletion of shRNA” value is 0.836.

For AGTGCCAGCTCTCCCTGGGCC, the “fold depletion of shRNA” value was 5.44.

For GATCCGCCACAACATCGAGGA, the “fold depletion of shRNA” value turned out to be 0.579.

As for TCTGCACCACCGGCAAGCTGC, the “fold depletion of shRNA” value is 1.1.

Consider ATATAATAAATATTTATGTAG, for which the “fold depletion of shRNA” value amounted to 0.736.

As for ACCAGCAGAACACCCCCATCG, the “fold depletion of shRNA” value worked out at 1.5.

For GCAGATTGAAAAGGACACCTT, the “fold depletion of shRNA” value came to 1.52.

For CCGTGCTGCTGCCCGACAACC, the “fold depletion of shRNA” value was determined as 0.694.

Turning to CATTTAACAGGCAAGTCCAAC, the “fold depletion of shRNA” value is 0.739.

Regarding GAGCGCACCATCTTCTTCAAG, the “fold depletion of shRNA” value turned out to be 1.03.

Turning to TCCAGGCACAGTTCTTCCCTG, the “fold depletion of shRNA” value worked out at 2.87.

In the case of TGATGTTTTTCATGGTTCTGG, the “fold depletion of shRNA” value was 1.22.

The data set is the same for the next values; noted with them: shRNA pool: CD95 ORF + CD95 3'UTR + Venus libraries.
For AACAGCCACAACGTCTATATC, the “fold depletion of shRNA” value worked out at 6.05.

Take GAAGCCAAAATAGATGAGATC: the “fold depletion of shRNA” value was found to be 1.11.

For TTATAAAATATAGGTAAAAGT, the “fold depletion of shRNA” value is 1.01.

For the sequence GCAAGACTGCCCTTAGAAATT, the “fold depletion of shRNA” value was determined as 5.32.

As for ACTACAGTTGAGACTCAGAAC, the “fold depletion of shRNA” value turned out to be 1.11.

For the sequence ACTTCCATTTATGGAGGATTT, the “fold depletion of shRNA” value was 1.24.

Turning to ATACATAGCAATGGTAAAATC, the “fold depletion of shRNA” value came to 0.443.

For GTCCGCCCTGAGCAAAGACCC, the “fold depletion of shRNA” value was 3.99.

As for TCCTGGTCGAGCTGGACGGCG, the “fold depletion of shRNA” value is 1.04.

For the sequence TGAAGAGAAAGGAAGTACAGA, the “fold depletion of shRNA” value was found to be 0.8.

For GCCCTGCCAAGAAGGGAAGGA, the “fold depletion of shRNA” value worked out at 1.25.

With CCAAGTTTCTAAGATTTAAGA, the “fold depletion of shRNA” value came to 0.942.

As to CCACTACCAGCAGAACACCCC, the “fold depletion of shRNA” value worked out at 1.52.

Consider TACTAGTGACTCAGAAAATTC, for which the “fold depletion of shRNA” value came out at 0.737.

Take ATCATGATGGCCAATTCTGCC: the “fold depletion of shRNA” value amounted to 1.87.

As for CTTCAAGGACGACGGCAACTA, the “fold depletion of shRNA” value came out at 0.969.

As for CTAAGTACCCAAATAGGAGTG, the “fold depletion of shRNA” value came out at 1.45.

On to CCTCCAGGTGAAAGGAAAGCT, for which the “fold depletion of shRNA” value worked out at 0.947.

In the case of TTAATAGTCCACCAAAAGGCA, the “fold depletion of shRNA” value came to 0.954.

With TGGTCCTGCTGGAGTTCGTGA, the “fold depletion of shRNA” value amounted to 1.09.

For the sequence TCGAGCTGGACGGCGACGTAA, the “fold depletion of shRNA” value turned out to be 1.72.

Take AACATATTTGTAGATTTTTAA: the “fold depletion of shRNA” value is 0.9.

CTGGGCATCTGGACCCTCCTA: the “fold depletion of shRNA” value stood at 0.711.

In the case of CAGCACGACTTCTTCAAGTCC, the “fold depletion of shRNA” value was found to be 1.51.

AATGTAAACTGTGAAGATAGT: the “fold depletion of shRNA” value was found to be 1.05.

Turning to AATCTCCAACTTTAAATCCTG, the “fold depletion of shRNA” value stood at 1.09.

With GAGCAAAGACCCCAACGAGAA, the “fold depletion of shRNA” value was 1.09.

In the case of AATTACCTCTGATAATTCTAG, the “fold depletion of shRNA” value was 1.1.

In the case of AAATGGCAGCTTATACATAGC, the “fold depletion of shRNA” value amounted to 0.47.

For the sequence GACGACGGCAACTACAAGACC, the “fold depletion of shRNA” value worked out at 0.864.

On to TAGGAGTGTATGCAGAGGATG, for which the “fold depletion of shRNA” value turned out to be 1.83.

With TCTAAGATTTAAGATTCTCCT, the “fold depletion of shRNA” value worked out at 1.17.

Consider TCCAAATGCAGAAGATGTAGA, for which the “fold depletion of shRNA” value turned out to be 1.08.

Take AGATTGTGTGATGAAGGACAT: the “fold depletion of shRNA” value is 7.74.

Consider GAAAATTCAGACTATCATCCT, for which the “fold depletion of shRNA” value is 3.61.

CGGCGACGGCCCCGTGCTGCT: the “fold depletion of shRNA” value came out at 0.424.

As for TTTATCATTTATTAGCGCTGA, the “fold depletion of shRNA” value is 1.44.

Take CTATCATCCTCAAGGACATTA: the “fold depletion of shRNA” value turned out to be 7.02.

In the case of AAAGGAAAACCAAGGTTCTCA, the “fold depletion of shRNA” value stood at 1.21.

On to TTTAAATAAGGCTCTACCTCA, for which the “fold depletion of shRNA” value turned out to be 6.31.

As to GATCCGCCACAACATCGAGGA, the “fold depletion of shRNA” value was 1.42.

Regarding TCTGCACCACCGGCAAGCTGC, the “fold depletion of shRNA” value worked out at 0.906.

Take CATGGAAAGAAAGAAGCGTAT: the “fold depletion of shRNA” value worked out at 0.571.

Consider AATCATCATCTGGATTTAGGA, for which the “fold depletion of shRNA” value is 1.05.

For TAAGATTTAAGATTCTCCTTA, the “fold depletion of shRNA” value turned out to be 2.02.

CTACAAATGGCAGCTTATACA: the “fold depletion of shRNA” value is 1.43.

On to ATACTAACTGCTCTCAGAGAA, for which the “fold depletion of shRNA” value came out at 1.56.

Take ACCAGCAGAACACCCCCATCG: the “fold depletion of shRNA” value was found to be 0.776.

Consider GTGAAAGGAAAGCTAGGGACT, for which the “fold depletion of shRNA” value worked out at 0.524.

On to TGGTTTGGAGATACTAACTGC, for which the “fold depletion of shRNA” value amounted to 2.42.

With CCATATTTCTAAACTTTGTTT, the “fold depletion of shRNA” value stood at 1.7.

Turning to GTACAGAAAACATGCAGAAAG, the “fold depletion of shRNA” value is 0.839.

As to AGCGTATGACACATTGATTAA, the “fold depletion of shRNA” value worked out at 0.928.

For CCGTGCTGCTGCCCGACAACC, the “fold depletion of shRNA” value was determined as 1.02.

With CACCAAAAGGCAAGACTGCCC, the “fold depletion of shRNA” value stood at 0.753.

For TCCATTTATGGAGGATTTTTT, the “fold depletion of shRNA” value amounted to 1.05.

Consider GAGCGCACCATCTTCTTCAAG, for which the “fold depletion of shRNA” value worked out at 0.939.

For TACGTTTAAATATCTTTGAAA, the “fold depletion of shRNA” value is 0.791.

GCTCATCTTAATGGCCTAATG: the “fold depletion of shRNA” value is 1.43.

Take GAATGACAATGTCCAAGACAC: the “fold depletion of shRNA” value was 1.22.

AATGGTGTCAATGAAGCCAAA: the “fold depletion of shRNA” value came to 2.84.

With TTCTCATGAATCTCCAACTTT, the “fold depletion of shRNA” value worked out at 0.772.

For TAAGATTATGCTCTGGCATCT, the “fold depletion of shRNA” value was 1.1.
